Measurements published in patent US11365205B2 (Aurigene Discovery Technologies Limited, priority 2018, dated 2022).

Biological target: PRMT5/MEP50 Complex (Homo sapiens (Human), UniProt O14744)
Assay: PRMT5 inhibition based on TR-FRET assay
Type: biochemical
Conditions: 32 nM PRMT5:MEP50, 50 nM Histone-H4 peptide, 1 μM SAM
Source text: PRMT5 Inhibition Based on TR-FRET Assay:
Protein arginine methyltransferase 5 (PRMT5) is a type II arginine methyltransferase that catalyze mono- and symmetric demethylation on arginine residues of histone or non-histone proteins in presence of S-adenosylmethionine (AdoMet or SAM) a cofactor responsible for donating the methyl group. PRMT5 is reported to be overexpressed in several human cancers. To identify compounds that inhibit the PRMT5 and decrease its activity, a TR-FRET based assay has been established. Time-resolved fluorescence resonance energy transfer (TR-FRET) HTS assays are homogeneous proximity assays where the interaction of two dye-labeled binding partners is detected by the energy transfer between a donor and an acceptor dye and the subsequent light emission by the acceptor dye. PRMT5 catalyzes Histone H4 peptide which is biotin tagged to the Lysine amino acid at carboxyl end, in presence of S-adenosyl-1-methionine (SAM) to methylate the peptide. The antibody specific to mono methylated H4 peptide (H4R3) with Ig conjugate binds to the methylated peptide, indirectly binding to the Europium lanthanide. […]
The compound dilutions were prepared as 7.5% DMSO stock solutions in assay buffer. […] The plates were then read on Victor-3 with Excitation at 340 nm and Emissions collected at 615 and 665 nm in TR-FRET protocol. […]

Sequence of UniProt O14744 (O14744 whole entry): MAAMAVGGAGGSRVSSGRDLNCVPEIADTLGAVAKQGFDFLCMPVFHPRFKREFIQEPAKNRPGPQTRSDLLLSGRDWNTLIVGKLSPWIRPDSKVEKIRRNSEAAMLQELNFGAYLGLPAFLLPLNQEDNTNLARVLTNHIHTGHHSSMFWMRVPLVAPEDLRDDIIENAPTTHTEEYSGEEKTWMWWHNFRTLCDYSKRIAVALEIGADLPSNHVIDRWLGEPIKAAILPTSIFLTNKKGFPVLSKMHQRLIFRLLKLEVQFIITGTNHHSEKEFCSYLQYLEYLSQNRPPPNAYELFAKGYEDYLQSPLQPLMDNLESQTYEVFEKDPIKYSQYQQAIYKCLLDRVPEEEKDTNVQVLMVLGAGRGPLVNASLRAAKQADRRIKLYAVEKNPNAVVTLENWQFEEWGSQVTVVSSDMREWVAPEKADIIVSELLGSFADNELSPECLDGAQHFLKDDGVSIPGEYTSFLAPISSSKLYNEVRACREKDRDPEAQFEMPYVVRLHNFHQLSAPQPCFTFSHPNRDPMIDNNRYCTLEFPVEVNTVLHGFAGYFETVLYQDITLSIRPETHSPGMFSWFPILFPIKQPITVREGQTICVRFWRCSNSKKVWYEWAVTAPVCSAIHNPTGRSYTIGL
Sequence of UniProt O14744 (Q9BQA1 whole entry partner): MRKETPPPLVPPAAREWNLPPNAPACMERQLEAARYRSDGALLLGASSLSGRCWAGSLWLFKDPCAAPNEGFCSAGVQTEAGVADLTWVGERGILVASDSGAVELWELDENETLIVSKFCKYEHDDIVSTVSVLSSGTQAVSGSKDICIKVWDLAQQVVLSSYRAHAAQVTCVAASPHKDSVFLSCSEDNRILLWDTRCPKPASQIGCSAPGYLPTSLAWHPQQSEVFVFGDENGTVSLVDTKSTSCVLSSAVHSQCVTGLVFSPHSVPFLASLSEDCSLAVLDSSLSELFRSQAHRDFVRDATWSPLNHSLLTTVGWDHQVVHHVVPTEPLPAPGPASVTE

SMILES | IC50 [µM]
Cc1ccccc1CN1CCN(CC(O)CN2CCc3ccccc3C2)C1=O (single isomer, unassigned) [Example 16a, 1-(3-(3,4-Dihydroisoquinolin-2(1H)-yl)-2-hydroxypropyl)-3-(2-methylbenzyl)imidazolidin-2-one] | 0.19
Cc1ccccc1CN1CCN(CC(O)CN2CCc3ccccc3C2)C1=O (single isomer, unassigned) [Example 16b, 1-(3-(3,4-Dihydroisoquinolin-2(1H)-yl)-2-hydroxypropyl)-3-(2-methylbenzyl)imidazolidin-2-one] | > 5
